About 220 (0.56%) of roughly 39,000 compounds showed activity. This is one part of the list.
These compounds were tested on Escherichia coli K-12 BW25113 (assay: relative growth (OD600 normalised to plate interquartile mean) (fraction); higher = less growth inhibition, active = 0.2 or less). Settings: 50 µM; LB; incubation time: overnight (16-24 h).
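Also: static incubation at 37 °C against the wild-type strain, values averaged over two biological replicates.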

SMILES	relative growth
O=c1[nH]c2ccc(F)cc2nc1O	inactive: 0.99
CC(C)NC(=O)N(C)C[C@@H]1OCc2cn(nn2)CCCC(=O)N([C@H](C)CO)C[C@H]1C	inactive: 1.01
C[C@H](CO)N1C[C@H](C)[C@@H](CN(C)C(=O)Nc2cccc3ccccc23)OCCCC[C@H](C)Oc2ccc(NC(=O)Nc3ccccc3)cc2C1=O	inactive: 1.03
C[C@H](CO)N1C[C@H](C)[C@H](CN(C)S(=O)(=O)c2cccs2)Oc2ccc(NC(=O)Cn3cnnn3)cc2CC1=O	inactive: 0.997
COc1ccc(S(=O)(=O)Nc2ccc3c(c2)CC(=O)N([C@@H](C)CO)C[C@@H](C)[C@@H](CN(C)CC2CC2)O3)cc1	inactive: 0.989
Cc1noc(C)c1NC(=O)N(C)C[C@@H]1Oc2ccc(NC(=O)Nc3cccc4ccccc34)cc2C(=O)N([C@@H](C)CO)C[C@@H]1C	inactive: 1.03
C[C@H](CO)N1C[C@H](C)[C@@H](CN(C)Cc2ccc(C(=O)O)cc2)Oc2ncc(Br)cc2C1=O	inactive: 1.01
CC(C)NC(=O)Nc1ccc2c(c1)CC(=O)N([C@H](C)CO)C[C@H](C)[C@@H](CN(C)S(=O)(=O)c1cccs1)O2	inactive: 0.999
COCC#Cc1ccc2c(c1)O[C@H](CN(C)C(=O)c1ccccc1F)[C@@H](C)CN([C@@H](C)CO)S2(=O)=O	inactive: 1.01
C[C@@H]1CCCCO[C@@H](CN(C)Cc2ccc(Cl)c(Cl)c2)[C@@H](C)CN([C@@H](C)CO)C(=O)c2cc(NC(=O)Nc3ccc4c(c3)OCO4)ccc2O1	inactive: 1.01
C[C@H](CO)N1C[C@H](C)[C@@H](CN(C)Cc2ccc(Oc3ccccc3)cc2)Oc2c(NC(=O)c3ccc(-c4nccs4)cc3)cccc2C1=O	inactive: 1.02
COCC#Cc1ccc([C@H]2[C@@H](CO)N3C(=O)CN(C(=O)CN4CCOCC4)C[C@@H]23)cc1	inactive: 1.01
C[C@H]1CN([C@@H](C)CO)C(=O)Cc2cc(NS(=O)(=O)c3cccs3)ccc2O[C@H]1CN(C)Cc1ccc(-c2ccccc2)cc1	inactive: 1.01
Cc1ccc(S(=O)(=O)Nc2ccc3c(c2)C(=O)N([C@@H](C)CO)C[C@H](C)[C@@H](CN(C)C(=O)Nc2ccc(C(F)(F)F)cc2)OCCCC[C@@H](C)O3)cc1	inactive: 0.976
CCS(=O)(=O)Nc1ccc2c(c1)C(=O)N(C)[C@@H]1CC[C@@H](CC(=O)NCc3ccccc3F)O[C@@H]1CO2	inactive: 1.02
C[C@@H]1CN([C@H](C)CO)C(=O)c2cccc(NS(C)(=O)=O)c2O[C@H]1CN(C)S(=O)(=O)c1cccs1	inactive: 1
C[C@@H]1CN([C@@H](C)CO)C(=O)c2cc(NS(=O)(=O)c3ccc(F)cc3)ccc2O[C@@H]1CN(C)Cc1ccncc1	inactive: 1
Cc1ccc(S[C@]2(C(=O)O)CC(=O)N(C3Cc4ccccc4C3)[C@@H]2c2ccc(CO)cc2I)cc1	inactive: 1.03
Cc1ccc(=O)n(CC(=O)O)n1	inactive: 1.03
C[C@H](CO)N1C[C@H](C)[C@H](CN(C)C(=O)C2CCCCC2)Oc2cc(C#CCN(C)C)ccc2S1(=O)=O	inactive: 1.01
C[C@H]1CN([C@@H](C)CO)C(=O)c2cccc(NC(=O)c3cnccn3)c2O[C@H]1CN(C)Cc1ccccc1	inactive: 1.02

SMILES	relative growth
C[C@@H]1CN([C@H](C)CO)C(=O)CCCn2nncc2CO[C@@H]1CN(C)C(=O)Nc1ccc(N2CCN(C)CC2)cc1	inactive: 1.02
C[C@@H]1CN([C@H](C)CO)C(=O)Cc2cc(NC(=O)CCC(F)(F)F)ccc2O[C@H]1CN(C)Cc1ccc(C(F)(F)F)cc1	inactive: 1.07
COc1ccc([Si](C)(C)[C@@H]2[C@@H](CCn3cc(CCOC(=O)NCCCCCC(=O)NO)nn3)O[C@]3(C(=O)N(Cc4ccc(I)cc4)c4ccccc43)[C@H]2C)cc1	inactive: 1.03
C[C@@H]1CN([C@@H](C)CO)C(=O)c2cc(NS(=O)(=O)c3cccs3)ccc2O[C@H]1CN(C)Cc1ccc(-c2ccccc2)cc1	inactive: 0.984
CC(C)NC(=O)N(C)C[C@@H]1Oc2ccc(NC(=O)Cn3cnnn3)cc2CC(=O)N([C@H](C)CO)C[C@@H]1C	inactive: 1.01
CCC(=O)N[C@@H]1C=C[C@@H](CC(=O)OC)O[C@H]1CO	inactive: 1.01
C[C@H]1CN([C@@H](C)CO)C(=O)c2cccc(NC(=O)c3ccc(-c4nccs4)cc3)c2O[C@H]1CN(C)C(=O)NC1CCCCC1	inactive: 0.993
O=C(CCO)c1ccc(O)cc1	inactive: 1.03
Cc1ccc(S(=O)(=O)N(C)C[C@H]2Oc3ccc(NS(=O)(=O)c4cn(C)cn4)cc3CC(=O)N([C@H](C)CO)C[C@H]2C)cc1	inactive: 0.996
C[C@@H]1CN([C@@H](C)CO)C(=O)c2cc(NC(=O)Nc3ccc4c(c3)OCO4)ccc2O[C@@H]1CN(C)S(=O)(=O)c1cn(C)cn1	inactive: 1.03
CCC(=O)OCC(=O)C1(OC(=O)CC)C(C)CC2C3CCC4=CC(=O)C=CC4(C)C3(F)C(O)CC21C (configuration not stated)	inactive: 0.832
COc1ccc(S(=O)(=O)Nc2cccc3c2O[C@@H](CN(C)C(=O)Nc2c(C)noc2C)[C@@H](C)CN([C@H](C)CO)C3=O)cc1	inactive: 0.995
C[C@H]1CN([C@@H](C)CO)C(=O)c2cc(-c3ccncc3)cnc2O[C@H]1CN(C)S(=O)(=O)c1ccccc1	inactive: 1.01
Cc1ccc(S(=O)(=O)Nc2ccc3c(c2)C(=O)N([C@H](C)CO)C[C@@H](C)[C@H](CN(C)S(=O)(=O)c2cn(C)cn2)O3)cc1	inactive: 1.01
Cn1ccc(=O)[nH]c1=O	inactive: 0.978
CC(C)=Cc1ccc(C#N)c(=S)[nH]1	inactive: 0.88
Cc1ccc(S(=O)(=O)Nc2ccc3c(c2)CC(=O)N([C@H](C)CO)C[C@@H](C)[C@H](CN(C)Cc2ccncc2)O3)cc1	inactive: 0.996
C[C@@H]1CCCCO[C@@H](CN(C)Cc2ccccc2)[C@@H](C)CN([C@@H](C)CO)C(=O)c2cc(NC(=O)c3ccncc3)ccc2O1	inactive: 1.02
CC(C)C#Cc1ccc2c(c1)O[C@H](CN(C)C(=O)Cc1ccccn1)[C@H](C)CN([C@H](C)CO)S2(=O)=O	inactive: 1.02
C[C@H](CO)N1C[C@H](C)[C@@H](CN(C)S(=O)(=O)c2cccs2)OCCCC[C@H](C)Oc2ccc(NC(=O)CCC(F)(F)F)cc2C1=O	inactive: 0.971
C[C@@H]1CN([C@@H](C)CO)C(=O)CCCn2nncc2CO[C@@H]1CN(C)C(=O)Nc1ccccc1C(F)(F)F	inactive: 1.02

SMILES	relative growth
C[C@@H]1CCCCO[C@H](CN(C)C(=O)NC2CCCCC2)[C@H](C)CN([C@@H](C)CO)C(=O)c2cc(NC(=O)CCC(F)(F)F)ccc2O1	inactive: 0.971
Cc1cc(C(=O)Nc2cccc3c2O[C@@H](CN(C)Cc2ccc4c(c2)OCO4)[C@H](C)CN([C@@H](C)CO)C3=O)n(C)n1	inactive: 1
O=C(c1cnccn1)N1CCC2(CCCN2)CC1	inactive: 0.994
C[C@H](CO)N1C[C@H](C)[C@H](CN(C)S(=O)(=O)c2ccc(Cl)cc2)Oc2ccc(NS(=O)(=O)c3cn(C)cn3)cc2CC1=O	inactive: 1.03
C[C@@H]1CCCCO[C@@H](CN(C)Cc2ccncc2)[C@@H](C)CN([C@H](C)CO)C(=O)c2cc(NC(=O)c3ccccc3)ccc2O1	inactive: 0.905
CC(C)(CO)NC(=S)NC[C@H]1CCCO1	inactive: 1
COc1ccc(S(=O)(=O)Nc2cccc3c2O[C@@H](CN(C)S(=O)(=O)c2ccc(OC)cc2)[C@H](C)CN([C@H](C)CO)C3=O)cc1	inactive: 1.04
CCS(=O)(=O)N1[C@H](CO)[C@H](c2ccccc2)C12CN(C(=O)CN(C)C)C2	inactive: 0.975
CS(=O)(=O)N1CC[C@@H]2OCCN(C(=O)c3cccnc3)[C@@H]2C1	inactive: 0.979
CC(C)NC(=O)Nc1cccc2c1O[C@H](CN(C)C(=O)Nc1ccc3c(c1)OCO3)[C@@H](C)CN([C@@H](C)CO)C2=O	inactive: 0.996
CS(=O)(=O)N1[C@@H]2Cn3c(ccc(-c4ccccc4)c3=O)[C@H]1[C@@H](C(=O)NCC1CC1)[C@@H]2CO	inactive: 0.991
C[C@H](CO)N1C[C@H](C)[C@@H](CN(C)C(=O)Cc2ccccc2)OCCCC[C@H](C)Oc2ccc(NC(=O)Cc3ccccc3)cc2C1=O	inactive: 0.993
CC/C(=C\c1ccccc1)C(=O)O	inactive: 0.983
CC(C)NC(=O)Nc1cccc2c1O[C@@H](CN(C)S(=O)(=O)c1ccc(F)cc1)[C@H](C)CN([C@@H](C)CO)C2=O	inactive: 1.01
C[C@@H]1CN([C@H](C)CO)C(=O)Cc2cc(NC(=O)CCN3CCOCC3)ccc2O[C@H]1CN(C)CC1CCCCC1	inactive: 0.949
COc1ccc(NC(=O)N(C)C[C@H]2OCc3cn(nn3)CCCC(=O)N([C@H](C)CO)C[C@H]2C)c(OC)c1	inactive: 0.995
C[C@@H]1CCCCO[C@@H](CN(C)Cc2ccc(Cl)c(Cl)c2)[C@H](C)CN([C@H](C)CO)C(=O)c2cc(NC(=O)Nc3ccc(C(F)(F)F)cc3)ccc2O1	inactive: 1.01
C[C@@H]1CN([C@@H](C)CO)C(=O)Cc2cc(NS(=O)(=O)c3cn(C)cn3)ccc2O[C@H]1CN(C)S(=O)(=O)c1cccs1	inactive: 0.986
C[C@@H]1CCCCO[C@H](CN(C)C(=O)c2ccccc2)[C@H](C)CN([C@@H](C)CO)C(=O)c2cc(NC(=O)CCC(F)(F)F)ccc2O1	inactive: 0.999
OC[C@@H]1CCCCN1	inactive: 0.985
